Assay results from the supplement of paper PMC7125110.
± gives the standard error. This sample is rich in variants without activity.

B1: glmS ribozyme (parent)
chain: AUAAAAGCGCCAGAACUACAGAAAUGUAGUUGACGAGGAGGAGGUUUAUCGAAUUUUCGGCGGAUGCCUCCAAA

Variants of: B1
Assay: self-cleavage kobs at 2500 uM GlcN6P; higher = faster cleavage; RNA array
Conditions: with glucosamine-6-phosphate
How it was run: (§1)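 Barcoded ribozyme variants, transcribed in situ by E. coli RNA polymerase on sequenced MiSeq chips, were followed via a hybridised Cy3 probe at 37 °C. Glucosamine-6-phosphate ranged from 40 μM to 10 mM in HEPES/KCl/Mg(OAc)2 buffer. kobs came from decay fits to per-tile medians, and kcat and KM from weighted Michaelis–Menten fits.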

| Variant | self-cleavage kobs at 2500 uM GlcN6P |
| --- | --- |
| C8G A15G C16U A36G | < 1e-05 s⁻¹ |
| C8G A15U G44C U54C | < 1e-05 s⁻¹ |
| C8G A33U U56G G59U | < 1e-05 s⁻¹ |
| C8G G9C G35A G62C | < 1e-05 s⁻¹ |
| C8G G29A U56C G62A | < 1e-05 s⁻¹ |
| C8G G29C G38C U57C | < 1e-05 s⁻¹ |
| C8G G29U A36C A48G C70U | < 1e-05 s⁻¹ |
| C8G G32A G40C U45G G59U C71G | < 1e-05 s⁻¹ |
| C8G U31C A33C U46G G60A | < 1e-05 s⁻¹ |
| C8U A15U C34U G60A | < 1e-05 s⁻¹ |
| C8U A36U A42U G43A G62U A64U | < 1e-05 s⁻¹ |
| C8U C10U A15U G41A U57G | < 1e-05 s⁻¹ |
| C8U C11A G32A A48U | < 1e-05 s⁻¹ |
| C8U C34A U46A | < 1e-05 s⁻¹ |
| C8U C34U G63C | < 1e-05 s⁻¹ |
| C8U C58U C67U U69C | < 1e-05 s⁻¹ |
| C8U G9U G13A G37A G41A | < 1e-05 s⁻¹ |
| C8U G29C G60U | < 1e-05 s⁻¹ |
| C8U G35C C67G | < 1e-05 s⁻¹ |
| C8U U30A G35A G40U C50G | < 1e-05 s⁻¹ |
| G9A A12U A48C | < 1e-05 s⁻¹ |

| Variant | self-cleavage kobs at 2500 uM GlcN6P |
| --- | --- |
| G9A A14C A15G G35C A39G A52C A53G | < 1e-05 s⁻¹ |
| G9A A14G G41U | < 1e-05 s⁻¹ |
| G9A A36C U45G G51C A64G | < 1e-05 s⁻¹ |
| G9A A39C G63A C70G | < 1e-05 s⁻¹ |
| G9A A52G G62A | < 1e-05 s⁻¹ |
| G9A C11G G32A G59U | < 1e-05 s⁻¹ |
| G9A C34U G35U G37C | < 1e-05 s⁻¹ |
| G9A G13C G51A | < 1e-05 s⁻¹ |
| G9A G29C G37U A48G A52C C70G | < 1e-05 s⁻¹ |
| G9A G40C U56A | < 1e-05 s⁻¹ |
| G9A G40U G63A A64U | < 1e-05 s⁻¹ |
| G9A U30A | < 1e-05 s⁻¹ |
| G9C A14C G40A C61A | < 1e-05 s⁻¹ |
| G9C A15U G66C C70G | < 1e-05 s⁻¹ |
| G9C A33C A36G A39G | < 1e-05 s⁻¹ |
| G9C A42G C68G | < 1e-05 s⁻¹ |
| G9C A48G A64U | < 1e-05 s⁻¹ |
| G9C A48U A53U G59C C71G | < 1e-05 s⁻¹ |
| G9C G29A A36C A53U | < 1e-05 s⁻¹ |
| G9C G37C A42U G43C C50U C67G C71A | < 1e-05 s⁻¹ |
| G9C G40C G51U | < 1e-05 s⁻¹ |

| Variant | self-cleavage kobs at 2500 uM GlcN6P |
| --- | --- |
| G9C U31A G38U U56C | < 1e-05 s⁻¹ |
| G9C U31G G59U | < 1e-05 s⁻¹ |
| G9C U45G C50U G59U | < 1e-05 s⁻¹ |
| G9C U55C C70G | < 1e-05 s⁻¹ |
| G9U A12C G38U A48C C68A | < 1e-05 s⁻¹ |
| G9U A12G A33C G35U C71A | < 1e-05 s⁻¹ |
| G9U A14G U45A C67A | < 1e-05 s⁻¹ |
| G9U A36G G51C A64G | < 1e-05 s⁻¹ |
| G9U A48U C58A G66U | < 1e-05 s⁻¹ |
| G9U G13C U31G U56C G66A | < 1e-05 s⁻¹ |
| G9U G13C U65A | < 1e-05 s⁻¹ |
| G9U G29A A33U | < 1e-05 s⁻¹ |
| G9U G32A G43A | < 1e-05 s⁻¹ |
| G9U G35C G51C U65A | < 1e-05 s⁻¹ |
| G9U G41C G59A C71U | < 1e-05 s⁻¹ |
| G9U U54C G62C | < 1e-05 s⁻¹ |
| G9U U57C U65C | < 1e-05 s⁻¹ |
| C10A A12U U45C A64U | < 1e-05 s⁻¹ |
| C10A A14G C34G A42G U47G G62U C68A | < 1e-05 s⁻¹ |
| C10A A42U U47A A53C | < 1e-05 s⁻¹ |
| C10A A48C A64U | < 1e-05 s⁻¹ |

| Variant | self-cleavage kobs at 2500 uM GlcN6P |
| --- | --- |
| C10A C11A A36G | < 1e-05 s⁻¹ |
| C10A C16U A64U | < 1e-05 s⁻¹ |
| C10A G13C G35U G41C C67U | < 1e-05 s⁻¹ |
| C10A G13U G43U | < 1e-05 s⁻¹ |
| C10A G13U U56A G62U | < 1e-05 s⁻¹ |
| C10A G21U C34U G38A A48U U54A C71U | < 1e-05 s⁻¹ |
| C10A G29A A33G A48U | < 1e-05 s⁻¹ |
| C10A G37A A53C | < 1e-05 s⁻¹ |
| C10A G40C U55A C58U U69G C70G | < 1e-05 s⁻¹ |
| C10G A14C G37A C70G | < 1e-05 s⁻¹ |
| C10G A36C G37C G40C G60U G66U | < 1e-05 s⁻¹ |
| C10G G29U A36C A39C U65A | < 1e-05 s⁻¹ |
| C10G G62U C70G | < 1e-05 s⁻¹ |
| C10G U30A C61U | < 1e-05 s⁻¹ |
| C10U A14C G41U U56C | < 1e-05 s⁻¹ |
| C10U A15C G32U G43A | < 1e-05 s⁻¹ |
| C10U A36G G66A | < 1e-05 s⁻¹ |
| C10U A42U G51U C61G C71U | < 1e-05 s⁻¹ |
| C10U A48C C58G | < 1e-05 s⁻¹ |
| C10U C67G C68U | 0.000126 ± 4.8e-05 s⁻¹ |
| C10U G13C C16U | < 1e-05 s⁻¹ |

Variants of: B1
Assay: self-cleavage kobs at 10000 uM GlcN6P; higher = faster cleavage; RNA array
Conditions: with glucosamine-6-phosphate
How it was run: as §1

| Variant | self-cleavage kobs at 10000 uM GlcN6P |
| --- | --- |
| C8U A15U C34U G60A | < 1e-05 s⁻¹ |
| C8U U30A G35A G40U C50G | < 1e-05 s⁻¹ |
| G9A G13C G51A | < 1e-05 s⁻¹ |
| G9U G41C G59A C71U | < 1e-05 s⁻¹ |
| C10G A36C G37C G40C G60U G66U | < 1e-05 s⁻¹ |
| C10U A42U G51U C61G C71U | < 1e-05 s⁻¹ |
